Source: the supplement of paper PMC4466236
Whole data set: some 33,000 sequences, median “E-score (dimensionless, -0.5 to 0.5)” near -0.058, cut for the highest 2% near 0.35. Some of the results follow.

What follows are sequences tested on MvaT (assay: PBM 8-mer E-score (mean of HK and ME arrays) (E-score (dimensionless, -0.5 to 0.5)); higher = stronger relative binding preference; most listed sequences are background and not binding sites).
How it was run: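 Full-length P. aeruginosa MvaT carrying an N-terminal glutathione S-transferase tag was tested by protein binding microarray following a previously described protocol. Two universal double-stranded 60-mer arrays, ME and HK, were used, each with a constant 25-mer primer region and a variable 35-mer region covering all 8-mers. The rank-based E-score is the mean of the two arrays, parsed with a custom script. Its range runs from -0.5 to 0.5 for each 8-mer.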

Sequence | PBM 8-mer E-score
AATTGAAG | 0.251
AGAAGCGC | -0.13
ACTAGGAG | -0.117
TAGAAAGA | 0.156
AATAGGAG | -0.0427
GACGCAGC | -0.356
AAGTGTAG | 0.159
CGGTCCGA | -0.24
ACTCTTAC | 0.13
CCGGTCGC | -0.295
GCCCAGAC | -0.235
CCTGAAAA | -0.0433
ATAGTGAT | 0.156
GTGTACGA | -0.0582
ACAAGCAC | -0.161
AAAAAGTG | 0.00186
AGATTTGA | 0.0316
GCGCCCTA | -0.132
ATCTTTCA | 0.181
AGTCTTGC | 0.0819
GGGGTTCA | -0.233
AGTCCAAC | -0.0362
AATAAGTA | 0.387
TGAAACCA | -0.0199
CGCCATGA | -0.243

Sequence | PBM 8-mer E-score
TACTGTAA | 0.336
ATTGTCTC | 0.101
ACGACTGA | -0.0289
AGTAGGCG | -0.118
CTATAGTA | 0.223
CAACTCGA | 0.0468
CACGCGCA | -0.122
AATAGCTG | 0.095
GGTGGGAA | -0.0414
CCTCCGCC | -0.388
ATTTCAAA | 0.205
ACCCTCAA | -0.0731
GGGACCCA | -0.225
AATTTCCG | 0.128
ATATCAGG | 0.146
ATCCTTGA | 0.00085
CGAGATGC | -0.222
CCTCCCAG | -0.224
CACAACGC | -0.146
AGGCCGTG | -0.229
AAGTAATT | 0.392
ATTATTTC | 0.352
AGCATACA | 0.0721
GGTAGCAC | -0.162
GTTTCGGA | 0.115

Sequence | PBM 8-mer E-score
GAATGCGA | 0.0642
CTATCCAG | -0.0225
AGTAGCTA | -0.0204
GAGAGAGC | -0.264
CGGCCGAA | -0.114
CGGTGGAG | -0.116
CTCAAGCC | -0.196
GGGATCAA | -0.0222
GACGGACA | -0.185
AGCCTTAT | 0.135
ATGACGTC | -0.166
AATTGATG | 0.136
AGTTCATG | 0.108
CAATCAGC | -0.0173
AACAGGTT | -0.0797
CATGCGCC | -0.22
CCCAGCGC | -0.248
AATTGCAA | 0.179
CGTCATGC | -0.161
ATCAATGG | -0.096
CCGATAGG | -0.233
AACTGAGC | -0.0188
AGACGTGA | -0.0817
AGACATGG | -0.246
GTTTGTGA | 0.198

Sequence | PBM 8-mer E-score
AGAATATC | 0.195
ACGAACGA | -0.115
AGTTGATC | 0.0552
ACTGCCAA | -0.239
AGGAGAAT | 0.0497
AACCCCTG | -0.251
TTCGCAAA | 0.0626
GCAACGAA | -0.117
ATCTAAAC | 0.222
AAGGTCTC | -0.208
AGATTGTA | 0.156
AAAAAGCC | -0.0384
TATCTAAA | 0.309
GGTTTCGA | -0.225
ATGGGGAG | -0.207
GCGCTCTA | -0.106
TAACGCGA | 0.0409
CCGGTAAG | -0.0453
CTGTACAA | -0.0165
TACGGAGA | 0.0386
TGACGAAA | 0.147
GATCGCGA | -0.0811
TCAGATGA | 0.0376
CGTAAGCC | -0.205
GTAGGTGA | -0.0483

Sequence | PBM 8-mer E-score
CGATGGCC | -0.224
CTCGACTA | -0.0223
AGGGGCCA | -0.294
AGTAATAG | 0.213
GCAGTACC | -0.119
CAGGGCAC | -0.218
AACTCAAA | 0.167
AAGCGACG | -0.11
ATCTGTAG | 0.0781
TACACGGA | -0.0435
GCCACAGC | -0.247
ATATAAAG | 0.382
GGCGCATA | 0.0174
TGCATCAA | -0.0413
ATCATCCA | 0.0438
TGGCCTAA | -0.073
AACCGTCT | -0.123
CAAGACCG | -0.225
ACTGCCTC | -0.244
CATGAGAC | -0.0583
CTCTGAAG | -0.191
AAAGCCAC | -0.161
AGGCCCGC | -0.303
GTCAAAAC | 0.0997
GATAGTAA | 0.284

Sequence | PBM 8-mer E-score
TATGTACA | 0.327
CACATCGC | -0.184
AAAACGTC | 0.0359
GTGAGCTA | -0.209
CCCACTAG | -0.0671
AATCAACT | 0.128
CAAATAAC | 0.341
CGCCATAC | -0.154
CCGAAGTA | 0.12
AGTTTTAT | 0.351
TAGAAGAA | 0.0365
AACCATTC | -0.0413
CAATGCCA | -0.0747
CGTTCTTA | 0.118
ACATCGCC | -0.217
TCCTGCAA | -0.141
CGTACGCA | -0.072
GGGGCGAC | -0.182
TGGCATAA | 0.135
CGACATAG | -0.0874
AAAGGACG | -0.247
AAAAATTG | 0.117
TGACTGCA | -0.107
CTGGAGAC | -0.185
AGGCGATA | -0.135

Sequence | PBM 8-mer E-score
GTGTTACA | 0.244
GACGACAA | -0.0565
AAACGCTA | 0.077
CGTCAGAG | -0.26
GCCGTAGC | -0.303
GCACCACC | -0.184
CCTACAAA | -0.165
CACTGGCG | -0.195
GGGCCTAC | -0.286
ATGTCCCG | -0.0512
CAATACAC | 0.185
ACTGTGCT | -0.00361
ACCCGAGA | -0.109
AGACCCGG | -0.157
CGGTGAGA | -0.14
GCCTAACA | -0.00559
CAATGCAA | 0.047
GTACCTTA | 0.119
TATCAATA | 0.365
AACCACAC | 0.0572
ATTGGAAA | 0.0872
AGTAAAAT | 0.308
CGGAGACC | -0.231
CTGACAGA | -0.11
CTATTAAG | 0.17

Sequence | PBM 8-mer E-score
AAGCATCC | -0.0969
CGGGCTCA | -0.287
AGCCGCCA | -0.149
TCACGGAA | -0.0865
GCCACTAA | 0.15
ACTCGGCA | -0.149
GCTCGTAA | 0.00131
AAGTGTCA | 0.0929
GCACACAA | 0.0892
ACAAAAGC | 0.146
GTGCTCCA | -0.145
CAAATGTG | 0.0388
AGGGAGAT | -0.257
AAGTGAAC | -0.0729
AACGCTGC | 0.0312
ATGATACC | -0.0482
ACCTCTAT | -0.102
GTTTAATA | 0.407
ACTGACTA | 0.0879
AAGCCGAA | -0.0153
AAAACCTA | 0.136
CCGTACCC | -0.209
CGCCGCCA | -0.194
AAGTAAAA | 0.288
TCCGGACA | -0.116

Sequence | PBM 8-mer E-score
TACCTATA | 0.246
AATCCAAG | -0.0856
TAAAGAGA | 0.0828
GTCACTCA | -0.105
CAGGCGGA | -0.0811
GCAGCTCA | -0.206
CAGCGATC | -0.257
TGATAACA | 0.16
ACTGCGTG | -0.297
GCAATCTA | 0.0472
AACACCGC | 0.0298
AAAATCAA | 0.18
GGAACGCC | -0.268
ACGGCCTG | -0.228
CCACCTGA | -0.246
ATTTGCAA | 0.264
ATCACTAC | 0.115
TGTCTTAA | 0.249
AGTTCGGA | -0.0465
ATTGGGTG | 0.0213
ATTTTGCC | -0.0225
ACAGAGAT | 0.094
CACGCACG | -0.267
GTCCGGAA | -0.102
ACTAGGCA | -0.0711

Sequence | PBM 8-mer E-score
CATCGTGG | -0.114
ACCGTGGG | -0.242
TGCAGTAA | 0.18
AGGAGGGA | -0.281
GTTTCAAA | 0.102
AGGTCGCA | -0.201
ACGGCAGC | -0.259
CGTAGTGA | -0.121
ACATACTC | 0.0437
AATGTAGC | 0.0524
GACACCAC | -0.069
AGATAAAT | 0.241
AGCAACAA | 0.133
ACGGTGAT | 0.0259
CAACGCGC | -0.174
AATATCTC | 0.253
ATATTGCG | 0.326
ACTCATTA | 0.241
ACAGAGCA | -0.0954
GTCCTCGA | -0.0957
GCAACCAC | -0.0613
ACCCATTG | -0.0349
ACGTTGCC | -0.023
CTGGTCTC | -0.117
GAACTGAC | -0.103

Sequence | PBM 8-mer E-score
CCACTAAA | 0.0873
ACAACGCA | 0.0745
AGTTGGAG | -0.0398
CCTAGAAC | -0.0719
CCTATCTA | -0.0202
AAAACCAG | -0.124
ATGGAATA | 0.251
CGCCTCAG | -0.17
ATTTGATC | 0.234
AATACCCC | -0.0253
GATTGGAC | -0.197
ATCCGTCG | -0.0835
TAATCCCA | 0.11
ATACCTAA | 0.202
ATACGCCG | 0.0466
TATAAATA | 0.426
GGGTTTAC | -0.127
CTGAGACC | -0.29
GATCTCAA | -0.245
ACTGGCAC | -0.172
AGTGCCAA | -0.0358
GGATGGCC | -0.424
AGCGAGTA | 0.0914
GCTCATGA | -0.248
GAGGGGTA | -0.103

Sequence | PBM 8-mer E-score
AGAGCGAA | -0.205
CATTAGAC | -0.0167
AAGAAATC | 0.0897
GAGAATAA | 0.24
CCCCGTGA | -0.306
CGCAGGTC | -0.181
GGATAAAC | 0.2
AAACTAGC | 0.161
AAAGCACA | 0.043
GGTTACAA | 0.194
AACGGGCG | 0.0213
AATACATA | 0.324
AACCTGCA | -0.0326
AAGGGACC | -0.22
AACGAAAT | 0.235
AGGCAACT | 0.0507
TATCCTCA | 0.137
AGAATGGC | 0.0244
ACAACACA | 0.176
CAACCGAA | 0.0498
GCGGGTAC | -0.223
ACGGTAAG | -0.0748
ACAGCCAT | 0.00243
AAGAAAGC | 0.0463
AACTCCGT | 0.0106

Sequence | PBM 8-mer E-score
AGTTCGAT | 0.171
AATGGGGG | -0.135
CTGGCTCC | -0.161
AGAGCCTC | -0.0999
ACGGGAAG | -0.146
GTTCCTTA | 0.0235
CAGAGTAA | -0.081
CAGAGATA | 0.0439
AATGCGTC | 0.0828
CGGCTACC | -0.269
AGAGGCAG | -0.197
AATAGTGA | 0.0562
AGCACGTG | 0.0247
AGGGAGTG | 0.00184
ACTAGCCC | -0.207
TCATCGCA | 0.0334
CCAGGAAG | -0.0742
GCTAGTAC | -0.067
AACTGTAT | 0.158
CCTCATAG | -0.113
ATAGCATG | -0.0166
GGATAAAA | 0.265
AGACACAC | -0.00748
CACGACAC | -0.102
CCACAAGA | -0.147

Sequence | PBM 8-mer E-score
CCGGCGGC | -0.241
AGGTGCGC | -0.0802
CGAACCCC | -0.164
ATGTTGTC | 0.295
AAGTAACC | 0.0722
GCGACAAC | 0.0135
GTACTCCA | -0.0891
GAATTCTA | 0.269
GAAGTTCC | 0.0962
CCAACGAA | 0.0022
CTGAACCC | -0.141
ATCGTATG | 0.0402
CTATAAAA | 0.171
TAGACCGA | 0.114
CCTCATTC | -0.218
GCCTAATA | 0.133
ATGCGTCA | 0.124
TCCAGCGA | 0.0105
AACAACTA | 0.335
